Source: the supplement of paper PMC4967469

How the values were obtained:
Test in all cases: Viability of human cancer cell lines after 72 h of drug (GDSC screen)
NSC-207895 = compound: CN1CCN(c2ccc([N+](=O)[O-])c3no[n+]([O-])c23)CC1 [NSC-207895]; conditions: top dose 20 µM; top dose inferred
Method: (§1)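 Human cancer cell lines in 384-well plates, medium with 10% serum, drug for 72 h over a 256-fold dose range (nine 2-fold or five 4-fold steps up to the top dose). Adherent lines were fixed and stained with the nucleic acid dye Syto60, suspension lines read with resazurin; signal relative to control wells, capped at 0 and 100%. One two-parameter sigmoid per drug and line, fitted in a mixed model over all curves with the slope shared within a line.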

JNK Inhibitor VIII = compound: CCOc1nc(NC(=O)Cc2cc(OC)ccc2OC)cc(N)c1C#N [JNK Inhibitor VIII]; conditions: top dose 10 µM; top dose inferred
Method: as §1

YM155 = compound: COCC[n+]1c2c(n(Cc3cnccn3)c1C)C(=O)c1ccccc1C2=O [YM155]; conditions: top dose 5.12 µM
Method: as §1

OSI-906 = compound: C[C@]1(O)C[C@@H](c2nc(-c3ccc4ccc(-c5ccccc5)nc4c3)c3c(N)nccn32)C1 [OSI-906]; conditions: top dose 2.56 µM; top dose inferred
Method: as §1

SB-715992 = compound: Cc1ccc(C(=O)N(CCCN)[C@@H](c2nc3cc(Cl)ccc3c(=O)n2Cc2ccccc2)C(C)C)cc1 [SB-715992]; conditions: top dose 0.128 µM; top dose inferred
Method: as §1

FTI-277 = compound: COC(=O)[C@H](CCSC)NC(=O)c1ccc(NC[C@@H](N)CS)cc1-c1ccccc1 [FTI-277]; conditions: top dose 1.024 µM; top dose inferred
Method: as §1

Cyclopamine = compound: CC1=C2C[C@H]3[C@@H](CC=C4C[C@@H](O)CC[C@@]43C)[C@@H]2CC[C@]12O[C@@H]1C[C@H](C)CN[C@H]1[C@H]2C [Cyclopamine]; conditions: top dose 16 µM; top dose inferred
Method: as §1

AMG-706 = compound: CC1(C)CNc2cc(NC(=O)c3cccnc3NCc3ccncc3)ccc21 [AMG-706]; conditions: top dose 2 µM; top dose inferred
Method: as §1

PHA-665752 = compound: Cc1[nH]c(/C=C2\C(=O)Nc3ccc(S(=O)(=O)Cc4c(Cl)cccc4Cl)cc32)c(C)c1C(=O)N1CCC[C@@H]1CN1CCCC1 [PHA-665752]; conditions: top dose 2 µM
Method: as §1

JQ1 = compound: Cc1sc2c(c1C)C(c1ccc(Cl)cc1)=N[C@@H](CC(=O)OC(C)(C)C)c1nnc(C)n1-2 [JQ1]
Method: as §1

Belinostat = compound: O=C(/C=C/c1cccc(S(=O)(=O)Nc2ccccc2)c1)NO [Belinostat]; conditions: top dose 20 µM; top dose inferred
Method: as §1

CGP-60474 = compound: OCCCNc1cc(-c2ccnc(Nc3cccc(Cl)c3)n2)ccn1 [CGP-60474]; conditions: top dose 0.256 µM; top dose inferred
Method: as §1

NVP-TAE684 = compound: COc1cc(N2CCC(N3CCN(C)CC3)CC2)ccc1Nc1ncc(Cl)c(Nc2ccccc2S(=O)(=O)C(C)C)n1 [NVP-TAE684]; conditions: top dose 2 µM
Method: as §1

JNJ-26854165 = compound: c1ccc2c(CCNc3ccc(Nc4ccncc4)cc3)c[nH]c2c1 [JNJ-26854165]; conditions: top dose 10 µM
Method: as §1

Docetaxel = compound: CC(=O)O[C@@]12CO[C@@H]1C[C@H](O)[C@@]1(C)C(=O)[C@H](O)C3=C(C)[C@@H](OC(=O)[C@H](O)[C@@H](NC(=O)OC(C)(C)C)c4ccccc4)C[C@@](O)([C@@H](OC(=O)c4ccccc4)[C@H]21)C3(C)C [Docetaxel]; conditions: top dose 0.0125 µM
Method: as §1

[1] = top dose 1 µM, screen: GDSC drug entry 1218, top dose inferred
[2] = top dose 2.56 µM, screen: GDSC drug entry 163

Cell Line	AUC (NSC-207895)	IC50 (NSC-207895)	AUC (JNK Inhibitor VIII)	IC50 (JNK Inhibitor VIII)	AUC (YM155)	IC50 (YM155)	AUC (OSI-906)	IC50 (OSI-906)	AUC (SB-715992)	IC50 (SB-715992)	AUC (FTI-277)	IC50 (FTI-277)	AUC (Cyclopamine)	IC50 (Cyclopamine)	AUC (AMG-706)	IC50 (AMG-706)	AUC (PHA-665752)	IC50 (PHA-665752)	AUC (JQ1; [1])	IC50 (JQ1; [1])	AUC (JQ1; [2])	IC50 (JQ1; [2])	AUC (Belinostat)	IC50 (Belinostat)	AUC (CGP-60474)	IC50 (CGP-60474)	AUC (NVP-TAE684)	IC50 (NVP-TAE684)	AUC (JNJ-26854165)	IC50 (JNJ-26854165)	AUC (Docetaxel)	IC50 (Docetaxel)
COLO-824 (breast, adherent)	0.912	> 20000 nM	0.988	> 10000 nM	0.028	< 20 nM	0.916	> 2560 nM	0.936	> 128 nM	0.982	> 1020 nM	0.986	> 16000 nM	0.988	> 2000 nM	0.975	> 2000 nM	0.987	> 1000 nM	0.874	> 2560 nM	0.502	1270 nM	0.907	> 256 nM	0.943	> 2000 nM				
CPC-N (small cell lung carcinoma, suspension)	0.744	6730 nM	0.985	> 10000 nM	0.029	< 20 nM	0.825	1720 nM	0.868	> 128 nM	0.985	> 1020 nM			0.983	> 2000 nM	0.972	> 2000 nM	0.812	597 nM	0.935	> 2560 nM	0.384	579 nM	0.928	> 256 nM	0.786	952 nM	0.901	> 10000 nM	0.859	12 nM
H-EMC-SS (chondrosarcoma, adherent)	0.816	15500 nM	0.92	> 10000 nM	0.213	34.6 nM	0.84	> 2560 nM	0.932	> 128 nM	0.972	> 1020 nM	0.981	> 16000 nM	0.829	1770 nM	0.968	> 2000 nM			0.958	> 2560 nM	0.762	9200 nM	0.902	> 256 nM	0.698	535 nM	0.922	> 10000 nM		
JURL-MK1 (chronic myeloid leukaemia, suspension)	0.972	> 20000 nM	0.986	> 10000 nM	0.401	171 nM	0.97	> 2560 nM	0.759	44.5 nM	0.986	> 1020 nM	0.978	> 16000 nM	0.987	> 2000 nM	0.975	> 2000 nM	0.956	> 1000 nM	0.815	1400 nM	0.39	623 nM			0.858	1630 nM	0.769	3770 nM	0.883	> 12.5 nM
KALS-1 (glioma, adherent)	0.875	> 20000 nM			0.045	< 20 nM	0.93	> 2560 nM	0.735	49 nM	0.966	> 1020 nM	0.929	> 16000 nM			0.967	> 2000 nM	0.944	> 1000 nM	0.646	472 nM	0.568	2050 nM	0.661	53.2 nM	0.802	1440 nM	0.898	> 10000 nM		
LB2241-RCC (kidney, adherent)	0.966	> 20000 nM			0.395	159 nM	0.919	> 2560 nM	0.983	> 128 nM	0.972	> 1020 nM	0.929	> 16000 nM			0.539	162 nM	0.98	> 1000 nM	0.839	2060 nM	0.633	3060 nM	0.976	> 256 nM	0.757	762 nM	0.888	> 10000 nM		
LNCaP-Clone-FGC (prostate, adherent)	0.914	> 20000 nM	0.981	> 10000 nM	0.143	< 20 nM	0.973	> 2560 nM	0.767	54.3 nM	0.979	> 1020 nM	0.972	> 16000 nM	0.982	> 2000 nM	0.967	> 2000 nM	0.977	> 1000 nM	0.726	778 nM	0.203	142 nM	0.94	> 256 nM	0.935	> 2000 nM	0.63	1500 nM		
NCI-H1770 (non-small cell lung carcinoma, suspension)	0.991	> 20000 nM	0.991	> 10000 nM	0.273	79.8 nM	0.805	1100 nM	0.917	> 128 nM	0.988	> 1020 nM	0.981	> 16000 nM	0.992	> 2000 nM	0.907	> 2000 nM	0.992	> 1000 nM	0.765	829 nM	0.469	1040 nM	0.891	234 nM			0.992	> 10000 nM	0.963	> 12.5 nM

The IC50 comes from the fitted curve, where viability falls to half of the control; a fit beyond the top or the lowest dose is shown as a bound at that dose. AUC sums up the same curve from the lowest dose to the 256-fold higher top dose; it is 1 without any effect and falls as sensitivity rises. For part of these data: An inferred top dose was calculated from the reported fits. For part of these data: An entry number marks a drug with two screens in the source, which often give different values.
